{"source": "the supplement of paper PMC8728848", "assay_in_all_cases": "glycan array binding signal (z-score within array); higher = stronger binding", "conditions_in_all_cases": "glycan notation: IUPAC condensed, linker removed", "key": {"GlcNAc(b1-3)Man": {"target": "GlcNAc(b1-3)Man", "summary_of_the_method": "(§1)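 Arrays were curated from the Consortium for Functional Glycomics database, 3228 in total, and kept only where the protein sequence was available. Binding is expressed as a within-array Z-score. This score was averaged across arrays of the same protein sequence at different concentrations or buffers and across linkers, and negative values can be read as non-binding.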"}, "[1]": {"target": "GlcNAc(b1-3)[GlcNAc(b1-4)][GlcNAc(b1-6)]GlcNAc", "summary_of_the_method": "as §1"}, "[2]": {"target": "GlcNAc(b1-3)[GlcNAc(b1-6)]Gal(b1-4)GlcNAc", "summary_of_the_method": "as §1"}, "[3]": {"target": "GlcNAc(b1-3)[GlcNAc(b1-6)]GalNAc", "summary_of_the_method": "as §1"}, "[4]": {"target": "GlcNAc(b1-4)Gal(b1-4)GlcNAc", "summary_of_the_method": "as §1"}, "GlcNAc(b1-4)GlcNAc": {"target": "GlcNAc(b1-4)GlcNAc", "summary_of_the_method": "as §1"}, "[5]": {"target": "GlcNAc(b1-4)GlcNAc(b1-4)GlcNAc", "summary_of_the_method": "as §1"}, "[6]": {"target": "GlcNAc(b1-4)GlcNAc(b1-4)GlcNAc(b1-4)GlcNAc(b1-4)GlcNAc", "summary_of_the_method": "as §1"}, "[7]": {"target": "GlcNAc(b1-4)GlcNAc(b1-4)GlcNAc(b1-4)GlcNAc(b1-4)GlcNAc(b1-4)GlcNAc", "summary_of_the_method": "as §1"}, "[8]": {"target": "GlcNAc(b1-4)[GlcNAc(b1-6)]GalNAc", "summary_of_the_method": "as §1"}, "[9]": {"target": "GlcNAc(b1-6)Gal(b1-4)GlcNAc", "summary_of_the_method": "as §1"}, "GlcNAc(b1-6)GalNAc": {"target": "GlcNAc(b1-6)GalNAc", "summary_of_the_method": "as §1"}, "[10]": {"target": "GlcNAc6S(b1-3)Gal(b1-4)GlcNAc", "summary_of_the_method": "as §1"}, "Kdn(a2-3)Gal(b1-3)GalNAc": {"target": "Kdn(a2-3)Gal(b1-3)GalNAc", "summary_of_the_method": "as §1"}, "Kdn(a2-3)Gal(b1-3)GlcNAc": {"target": "Kdn(a2-3)Gal(b1-3)GlcNAc", "summary_of_the_method": "as §1"}, "Kdn(a2-3)Gal(b1-4)Glc": {"target": "Kdn(a2-3)Gal(b1-4)Glc", "summary_of_the_method": "as §1"}, "Kdn(a2-3)Gal(b1-4)GlcNAc": {"target": "Kdn(a2-3)Gal(b1-4)GlcNAc", "summary_of_the_method": "as §1"}, "[11]": {"target": "Kdn(a2-3)Gal(b1-4)[Fuc(a1-3)]GlcNAc", "summary_of_the_method": "as §1"}, "Kdn(a2-6)Gal(b1-4)GlcNAc": {"target": "Kdn(a2-6)Gal(b1-4)GlcNAc", "summary_of_the_method": "as §1"}, "[12]": {"target": "Man(a1-2)Man(a1-2)Man(a1-3)Man", "summary_of_the_method": "as §1"}, "[13]": {"target": "Man(a1-2)Man(a1-2)Man(a1-6)[Man(a1-3)]Man", "summary_of_the_method": "as §1"}, "Man(a1-2)Man(a1-3)Man": {"target": "Man(a1-2)Man(a1-3)Man", "summary_of_the_method": "as §1"}, "[14]": {"target": "Man(a1-2)Man(a1-3)[Man(a1-2)Man(a1-6)]Man", "summary_of_the_method": "as §1"}, "[15]": {"target": "Man(a1-2)Man(a1-3)[Man(a1-2)Man(a1-6)]Man(a1-6)[Man(a1-2)Man(a1-2)Man(a1-3)]Man", "summary_of_the_method": "as §1"}, "[16]": {"target": "Man(a1-2)Man(a1-3)[Man(a1-2)Man(a1-6)]Man(a1-6)[Man(a1-2)Man(a1-2)Man(a1-3)]Man(b1-4)GlcNAc(b1-4)GlcNAc", "summary_of_the_method": "as §1"}, "[17]": {"target": "Man(a1-2)Man(a1-3)[Man(a1-6)]Man(a1-6)[Man(a1-2)Man(a1-3)]Man(b1-4)GlcNAc(b1-4)GlcNAc", "summary_of_the_method": "as §1"}, "[18]": {"target": "Man(a1-2)Man(a1-6)[Man(a1-3)]Man(a1-6)[Man(a1-2)Man(a1-2)Man(a1-3)]Man", "summary_of_the_method": "as §1"}, "[19]": {"target": "Man(a1-2)Man(a1-6)[Man(a1-3)]Man(a1-6)[Man(a1-2)Man(a1-2)Man(a1-3)]Man(b1-4)GlcNAc(b1-4)GlcNAc", "summary_of_the_method": "as §1"}, "Man(a1-3)[Man(a1-6)]Man": {"target": "Man(a1-3)[Man(a1-6)]Man", "summary_of_the_method": "as §1"}, "[20]": {"target": "Man(a1-3)[Man(a1-6)]Man(a1-6)[Man(a1-2)Man(a1-3)]Man(b1-4)GlcNAc(b1-4)GlcNAc", "summary_of_the_method": "as §1"}, "[21]": {"target": "Man(a1-3)[Man(a1-6)]Man(a1-6)[Man(a1-3)]Man", "summary_of_the_method": "as §1"}, "[22]": {"target": "Man(a1-3)[Man(a1-6)]Man(a1-6)[Man(a1-3)]Man(b1-4)GlcNAc(b1-4)GlcNAc", "summary_of_the_method": "as §1"}, "[23]": {"target": "Man(a1-3)[Man(a1-6)]Man(b1-4)GlcNAc(b1-4)GlcNAc", "summary_of_the_method": "as §1"}, "[24]": {"target": "Man(a1-3)[Man(a1-6)]Man(b1-4)GlcNAc(b1-4)[Fuc(a1-6)]GlcNAc", "summary_of_the_method": "as §1"}, "Man(a1-6)Man": {"target": "Man(a1-6)Man", "summary_of_the_method": "as §1"}, "Man(b1-4)GlcNAc": {"target": "Man(b1-4)GlcNAc", "summary_of_the_method": "as §1"}, "MurNAc(b1-4)GlcNAc": {"target": "MurNAc(b1-4)GlcNAc", "summary_of_the_method": "as §1"}, "Neu5Ac(a2-3)Gal": {"target": "Neu5Ac(a2-3)Gal", "summary_of_the_method": "as §1"}}, "note": "The other results are listed elsewhere or left out."}
{"binder": "Si Bti9 1b-V5-his (Solanum lycopersicum) (protein) MQCNRGCDLALASFYVWRGSNLTLISEMFSTSIADIVSYNNRDNIPNQDSVIAGTRINIPFRCDCLNDGEVLGHAFPYRVKSGDTYDLVARNYSDLTTAQWMMKFNSYPENNIPNTVNLSVVVNCSCGNSDVSKDFGLFVTYPVRAEDNLTSVASAANVSEDIIRRYNPAAVSILDIGQGIIYIPGRDRNGNFPPLPTSTDGLSGGAKKGGRADPAFLYKVVINSKLEGKPIPNPLLGLDSTRTGHHHHHH", "values": [{"measurement": "glycan array binding signal (z-score)", "setting": "GlcNAc(b1-3)Man", "result": -0.198}, {"measurement": "glycan array binding signal (z-score)", "setting": "[1]", "result": -0.337}, {"measurement": "glycan array binding signal (z-score)", "setting": "[2]", "result": -0.263}, {"measurement": "glycan array binding signal (z-score)", "setting": "[3]", "result": -0.256}, {"measurement": "glycan array binding signal (z-score)", "setting": "[4]", "result": -0.406}, {"measurement": "glycan array binding signal (z-score)", "setting": "GlcNAc(b1-4)GlcNAc", "result": -0.277}, {"measurement": "glycan array binding signal (z-score)", "setting": "[5]", "result": -0.35}, {"measurement": "glycan array binding signal (z-score)", "setting": "[6]", "result": 0.13}, {"measurement": "glycan array binding signal (z-score)", "setting": "[7]", "result": -0.156}, {"measurement": "glycan array binding signal (z-score)", "setting": "[8]", "result": 5.97}, {"measurement": "glycan array binding signal (z-score)", "setting": "[9]", "result": 0.267}, {"measurement": "glycan array binding signal (z-score)", "setting": "GlcNAc(b1-6)GalNAc", "result": -0.181}, {"measurement": "glycan array binding signal (z-score)", "setting": "[10]", "result": 0.015}, {"measurement": "glycan array binding signal (z-score)", "setting": "Kdn(a2-3)Gal(b1-3)GalNAc", "result": -0.196}, {"measurement": "glycan array binding signal (z-score)", "setting": "Kdn(a2-3)Gal(b1-3)GlcNAc", "result": -0.236}, {"measurement": "glycan array binding signal (z-score)", "setting": "Kdn(a2-3)Gal(b1-4)Glc", "result": -0.32}, {"measurement": "glycan array binding signal (z-score)", "setting": "Kdn(a2-3)Gal(b1-4)GlcNAc", "result": -0.192}, {"measurement": "glycan array binding signal (z-score)", "setting": "[11]", "result": -0.19}, {"measurement": "glycan array binding signal (z-score)", "setting": "Kdn(a2-6)Gal(b1-4)GlcNAc", "result": 0.082}, {"measurement": "glycan array binding signal (z-score)", "setting": "[12]", "result": -0.329}, {"measurement": "glycan array binding signal (z-score)", "setting": "[13]", "result": -0.395}, {"measurement": "glycan array binding signal (z-score)", "setting": "Man(a1-2)Man(a1-3)Man", "result": -0.307}, {"measurement": "glycan array binding signal (z-score)", "setting": "[14]", "result": -0.309}, {"measurement": "glycan array binding signal (z-score)", "setting": "[15]", "result": -0.294}, {"measurement": "glycan array binding signal (z-score)", "setting": "[16]", "result": -0.367}, {"measurement": "glycan array binding signal (z-score)", "setting": "[17]", "result": 0.019}, {"measurement": "glycan array binding signal (z-score)", "setting": "[18]", "result": -0.131}, {"measurement": "glycan array binding signal (z-score)", "setting": "[19]", "result": 0.077}, {"measurement": "glycan array binding signal (z-score)", "setting": "Man(a1-3)[Man(a1-6)]Man", "result": -0.158}, {"measurement": "glycan array binding signal (z-score)", "setting": "[20]", "result": -0.003}, {"measurement": "glycan array binding signal (z-score)", "setting": "[21]", "result": -0.138}, {"measurement": "glycan array binding signal (z-score)", "setting": "[22]", "result": -0.257}, {"measurement": "glycan array binding signal (z-score)", "setting": "[23]", "result": -0.362}, {"measurement": "glycan array binding signal (z-score)", "setting": "[24]", "result": -0.189}, {"measurement": "glycan array binding signal (z-score)", "setting": "Man(a1-6)Man", "result": 5.02}, {"measurement": "glycan array binding signal (z-score)", "setting": "Man(b1-4)GlcNAc", "result": -0.182}, {"measurement": "glycan array binding signal (z-score)", "setting": "MurNAc(b1-4)GlcNAc", "result": -0.464}, {"measurement": "glycan array binding signal (z-score)", "setting": "Neu5Ac(a2-3)Gal", "result": -0.249}]}
